# Experimental data: ChEMBL document CHEMBL1157539, “Thousands of chemical starting points for antimalarial lead identification” (Nature, 2010)
# The full ranking holds about 13,000 compounds; the median of “IFI” is about 4, and the highest 2% start at about 17. This is one part of the list.
# Test: GSK_TCMDC: Inhibition Frequency Index (IFI). The number of non-kinase HTS assays where a compound showed > 50 % inhibition, expressed as a percentage of the number of such assays in which the compound was tested (-0 is zero)
# Type: functional
row,Compound,IFI [%]
1,COc1cc2ncnc(Nc3ccc4nc(-c5ccccc5)[nH]c4c3)c2cc1OC,4.2
2,CC(C)c1cc2c(ccc3nc(N)nc(N)c32)o1,4
3,O=C(NC1CCN(CC2(c3ccccc3)CCCC2)CC1)c1n[nH]cc1Cl,-0
4,CN1CCC(NCc2cccc(-c3ccc(S(=O)(=O)NCCc4ccccn4)c(F)c3)c2)CC1,1.67
5,COc1ccc(NC(=O)NC2CCN(CCCOc3ccnc4cc(Cl)ccc34)C2)cc1OC (stereo unspecified),-0
6,O=C(NCCOc1ccccc1)[C@H](Cc1ccccc1)Nc1ccnc(NCC2CCCCC2)n1,20
7,Clc1ccc(C2CCN(CCCOc3ccc4c(c3)CCNCC4)CC2)cc1,10
8,Cc1cc(C(=O)Nc2ccc(OCc3ccccc3)cc2)on1,-0
9,COc1ccc2ncc(Cl)c(CCN3CC[C@@H](CNCc4cc5c(cn4)OCS5)C3)c2n1,4.46
10,Cc1cc(N2CCN(C3CCCCC3)CC2)nc2cccc(O)c12,0.95
11,O=C(Nc1cc(C(F)(F)F)ccc1N1CCOCC1)C(Cl)(Cl)Cl,2.13
12,COc1cccc(NC(=O)c2cc(C(=O)Nc3cccc(OC)c3)cc([N+](=O)[O-])c2)c1,4.17
13,CC(C)CNC(=O)c1cncc(-c2ccc(CNC3Cc4ccccc4C3)cc2)c1,4.92
14,O=C(Nc1ccc(F)cc1)c1ccc(C(=O)NC2CCN(CC3CCCCC3)CC2)cc1,2.68
15,COc1ccc(Nc2nc(N/N=C/c3ccc(-c4ccc([N+](=O)[O-])cc4)o3)nc(Nc3ccccc3)n2)cc1,0.74
16,CN(c1ccc2c(c1)nc(Nc1ccc(Cl)cc1)n2C)c1ccnc(Nc2ccc(CS(C)(=O)=O)cc2)n1,9.85
17,CCOc1ccccc1C1C(C(=O)C(C)(C)C)N2c3ccc(Br)cc3C=CC2C12C(=O)c1ccccc1C2=O (stereo unspecified),16.9
18,COc1ccc(NC(=O)/C=C/c2ccc(Cl)c(Cl)c2)cc1N1CCN(C)CC1,2.22
19,N#Cc1ccc(CN2CCCN(Cc3cccc(NC(=O)c4ccc(-c5ccccc5)cc4)c3)CC2)cc1,8.28
20,O=C(NCCCCN1CCC(C(c2ccccc2)c2ccccc2)CC1)c1ccc(NC(=O)c2ccc(Cl)cc2)cc1,3.79
21,CS(=O)(=O)c1ccc(OCCCN(Cc2ccccc2C(F)(F)F)c2ccc(C#N)c(C(F)(F)F)c2)cc1,0.74
22,Cc1[nH]c(C)c(-c2ccc(CCc3ccc(F)cc3F)cc2)c(=O)c1Cl,0
23,N=c1[nH]c2cccc3ccc4cccc1c4c32,3.65

row,Compound,IFI [%]
1,CCc1c(CCNCCCCCCNCc2ccc3c(c2CC)OCO3)ccc(OC)c1OC,8.09
2,CCCCNC(=O)C(C)NC(=O)c1ccc(O)c(-c2ccc(Cl)c(Cl)c2)c1 (stereo unspecified),2.96
3,O=C(Nc1ccc2ccccc2n1)c1ccccc1-c1ccccc1,6.74
4,O=S(=O)(NCCN1CCCC1)c1ccc(-c2ccc(CNCc3ccsc3)cc2)cc1F,9.43
5,NCc1cccc(-c2ccccc2CNC2CCN(Cc3ccccc3)CC2)c1,2.92
6,CN(C)c1ccc(OCCCCCCOc2ccccc2)cc1,0.72
7,CC(C)NCc1ccc(-c2ccc(CN3CCCC(c4ccccc4)C3)cc2)c(C(=O)NC2Cc3ccccc3C2)c1 (stereo unspecified),4.26
8,COc1ccc2nccc([C@@H](O)CN3CCC(NCCOc4ccccc4C(F)(F)F)CC3)c2c1,1.46
9,N=C(N)NC(=O)Nc1cc(Cl)c(Cl)c(Br)c1,5.34
10,CC(CNC(=O)C(c1cc2ccccc2o1)N1CCN(C(c2ccccc2)c2ccccc2)CC1)c1ccccc1 (stereo unspecified),1.46
11,Cc1cccc(C)c1CNc1cccc(-c2nc(C)c(C)[nH]2)c1,3.7
12,c1cc(CNCC2CCN(CC3CCCCC3)CC2)cc(-n2ccnc2)c1,1.38
13,Cc1noc(-c2ccc3c(c2)CCN(CCC2CCC(NC(=O)/C=C/c4ccc(F)cc4)CC2)CC3)n1 (stereo unspecified),1.42
14,CCN(CCCN1CCCCC1)c1cc(C)nc(Nc2cc(Cl)ccc2C)n1,5.13
15,CCCc1cc(N2CCC(c3ccccc3)(N3CCCCC3)CC2)nc(Nc2ccc(OC)cc2)n1,5.95
16,Oc1ccc(Nc2nc(NCc3ccccc3)c3ccccc3n2)cc1,10.7
17,CCSc1ccccc1CON1C(=N)N=C(N)NC1(C)C,5.56
18,CCOC(=O)C1=C(C)NC(C)=C(C(=O)OCC)C1(C(=O)OCc1ccccc1)c1cccc(C(F)(F)F)c1,2.38
19,Cc1ccccc1C1CCN(C2CCC(NC(=O)c3ccc(-c4ccccn4)s3)CC2)CC1 (stereo unspecified),7.02
20,CCOc1cc(C(=O)N[C@@H](Cc2ccccc2)[C@H](O)CNCc2cc(OC)cc(OC)c2)cc(N2CCCC2=O)c1,2.88
21,O=C(/C=C/c1ccccc1Cl)Nc1ccc(Br)c(OCCN2CCN(CCN3CCOCC3)CC2)c1,4.29
22,Clc1ccc2c(NCCc3ccccc3)ccnc2c1,5.19
23,N#Cc1ccc2[nH]cc(C(=O)CCCCCN(Cc3ccccc3)Cc3ccccc3)c2c1,1.52

row,Compound,IFI [%]
1,COc1cc(F)c2nccc([C@@H](O)CN3CCC(NCc4ccc5c(n4)NC(=O)CS5)C(F)C3)c2c1 (stereo partly specified),6.67
2,COc1ccc2ncc(C#N)c(CCN3C[C@H](CNCc4ccccc4)[C@H](O)C3)c2n1,1.96
3,CCOC(=O)c1c(C)noc1Nc1cccc(C)c1C,0.74
4,Cc1nc(-c2ccc(-c3ccc(NC(=O)c4coc5ccc(N6CC(C)NC(C)C6)cc45)cc3)c(C)c2)no1 (stereo unspecified),5.76
5,Cc1cc(NCCC(=O)Nc2ccccc2)nc(NCc2ccccc2C)n1,13.9
6,c1ccc(-c2csc(Nc3nc4cc5c(cc4s3)OCO5)n2)nc1,8.26
7,Oc1c(Cl)cc(-c2ccccc2)cc1CNC1CCCCC1,-0
8,O=C(/C=C/c1ccc(Cl)c(Cl)c1)NCCCCCN1CCC(NC(=S)Nc2ccc(Cl)c(Cl)c2)CC1,11.9
9,O=C(c1ccc(O)c(-c2cc(Cl)cc(Cl)c2)c1)N(CCO)CCO,0.74
10,c1ccc(Nc2nc(-c3ccccn3)cs2)nc1,8.51
11,O=C(CN1CCN(C(C(=O)Nc2cc(C(F)(F)F)ccc2Cl)c2ccccc2)CC1)NC1CC1 (stereo unspecified),2.74
12,CCCCN1Cc2c(n(CC(=O)Nc3ccccc3)c3cc(-c4ccccc4)nn3c2=O)C1=O,-0
13,O=C(NCc1ccc(F)cc1)Nc1ccc(-c2ccc(-c3nc4ccccc4[nH]3)cc2)cc1,6.78
14,CC(C)c1ccc(C=CC(=O)N2CCC(CCN3CCC(c4c[nH]c5ccccc45)CC3)CC2)cc1,7.19
15,O=C(/C=C/c1ccc(Cl)c(Cl)c1)NCCCCN1CCCN(C(=O)Nc2ccc(C(F)(F)F)cc2)CC1,9.92
16,Cc1ccc(NC(=O)NC2CCN(c3ccnc4ccccc34)CC2)cc1,3.03
17,CC(=NNC(=N)N)C(=O)Nc1ccc(Cl)c(Cl)c1,4.35
18,Cc1cc2nc(-c3cc(-c4cccc(NS(C)(=O)=O)c4)cnc3N)[nH]c2cc1C,5.97
19,COc1cc2nc(N3CCC(CNC(=O)c4ccc(-c5ccccc5)cc4)CC3)nc(N)c2cc1OC,2.22
20,O=C(Nc1cccc([N+](=O)[O-])c1)Nc1ccc(Cl)c(C(F)(F)F)c1,10
21,COC(=O)c1c(C#N)c(OC)cc(O)c1CSC[C@@H](CN1CCCCC1)Nc1nc(-c2ccc([N+](=O)[O-])cc2)cs1,4.76
22,CC(CCc1ccccc1)NCC(O)c1cccc([N+](=O)[O-])c1 (stereo unspecified),2.94
23,O=C(/C=C/c1ccc(Br)cc1)NCCCCCN1CCC(c2c[nH]c3ccccc23)CC1,5.47

row,Compound,IFI [%]
1,CC[C@H](C)[C@@H](C(=O)N1CCOCC1)N1CC[C@H](NS(=O)(=O)CC(C)(C)c2ccc(Cl)cc2)C1=O,0.74
2,COc1ccc2c(NN=Cc3ccc(N(C)C)cc3)ccnc2c1,5.8
3,CC(=O)Nc1nc(C(=O)Nc2ccc(-c3ccc(-c4nc5cc(F)ccc5[nH]4)cc3)cc2)cs1,5.22
4,COc1ccc(NC(=O)Nc2cccc(-c3cccc(-c4nc5cccc(C)c5[nH]4)c3)c2)cc1,2.04
5,COCCCNC(=O)[C@H]1CNCCN1C(=O)c1ccccc1,0
6,CN1CCN(CC(=O)Nc2ccc(-c3csc(-c4nc5ccccc5[nH]4)c3)cc2)CC1,8.04
7,CCCCCCCCCN(CCC)C(=O)[C@@H]1OC(C(=O)OC(c2ccccc2)c2ccccc2)=C[C@H](NC(=O)OC(C)(C)C)[C@H]1NC(C)=O,-0
8,O=C(NCc1ccc(C(=O)N2CCC(N3CCCCC3)CC2)cc1)c1cc(-c2cccc(C(F)(F)F)c2)ccc1O,0.72
9,C#CCCC(=O)Nc1cccc(-c2cccc(-c3nc4cc(C(F)(F)F)ccc4[nH]3)c2)c1,6.19
10,CCc1sc(CN(CCCNc2cc(=O)c3ccccc3[nH]2)Cc2sc(CC)c(Br)c2-c2ccsc2)c(-c2ccsc2)c1Br,5.04
11,CN1CCCC(COc2cc3c(cc2Br)CCN3C(=O)Nc2ccc(-c3ccncc3)c(Cl)c2)C1 (stereo unspecified),9.85
12,COc1cc(NC(=O)/C=C/c2cccc3ccoc23)ccc1OCCN(C(C)C)C(C)C,2.99
13,Nc1ncc(-c2ccc3nccc(-c4ccncc4)c3c2)cc1S(=O)(=O)N1CCCCC1,10.5
14,COc1ccc2nc(-c3ccc(C(=O)NCCCN4CCN(c5cc(Cl)ccc5OC)CC4)cc3OC)[nH]c2c1,1.52
15,Cn1nccc1C(=O)NCCNCc1ccc(-c2ccc(-c3nc4cc(C(F)(F)F)ccc4[nH]3)cc2)cc1,10.8
16,O=C(N[C@@H](Cc1ccccc1)C(=O)NCc1cccc(C(F)(F)F)c1)c1ccc(O)c(-c2ccc(Cl)c(Cl)c2)c1,3.65
17,COc1cccc(CCNc2nc(NCc3ccccc3)c3cc(OC)c(OC)cc3n2)c1,5.93
18,COC(=O)c1noc(C)c1I,-0
19,CC[C@H](C)CNC(=O)c1cncc(-c2ccc(CNCCOc3ccccc3)cc2)c1,3.28
20,N#Cc1ccc(N2CCN(Cc3ccc(-c4ccc(-c5nc6cc(C(F)(F)F)ccc6[nH]5)cc4)cc3)CC2)nc1,3.96
21,COc1ccc(CNC2CCN(C)CC2)cc1-c1ccc(S(=O)(=O)NCCc2ccccn2)cc1,0
22,Cc1cc(=NN=Cc2cccc(F)c2)c2cccc(C)c2[nH]1,0.76
